The supplement of paper PMC11417369
This is one part of the list.

The sequences below were run on PfSIP2 AP2 domain 1 (GST-tagged) (assay: gcPBM binding intensity (ln(normalized median fluorescence intensity)); higher = stronger DNA binding).
Summary of the method: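 Binding intensity is defined as the maximum Masliner-normalised natural-log median intensity across replicate spots for either probe orientation. It was measured on an Agilent 4 × 180k array of primer-extended double-stranded 36-bp intergenic genomic probes and negative controls, to which GST-tagged P. falciparum DNA-binding domains made in E. coli were applied for 1 h in 1× PBS with 1% milk, 0.2 mg/ml BSA, 0.5% salmon testes DNA and 0.03% Triton X-100. Detection was by Alexa488 anti-GST antibody and scanning at 488 nm.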

Sequence	gcPBM binding intensity (ln)
ATTTATTTTTTACATTGTACATATTTATTCCTTTTA [XGTACX_site8028]	7.05
TATAACATTTTTTTCAAAATAGCTTTAGAAATAAAG [CACACA_negctrl_site718]	6.6
TTATTTTCAAAATGTTGTACACACAAAAAAAAAAAA [XGTACX_site3151]	7.73
TTTTTTTTTTTTTTTGCATGCAGGTTTTTACCCCTT [TGCATGCA_site381]	6.88
TTTTTTTTCTTCAAGCGTACTTATTTGTAGAAAAAA [XGTACX_site1728]	6.9
ATATGTGGAAATAGAGCACACATATATATAATATAT [CACACA_site8194]	7.17
TATGTATATATATAAAGTACGCAAATTTATAATAAG [XGTACX_site8744]	7.34
ACTAACATATATTCAACACACATATACCTTCAACCC [CACACA_site3011]	7.15
TATATATATATATACACACACACATATATATATATA [CACACA_site774]	9.6
CCCATTTAATATTGAGTGCATTTAAATAAATGTATT	8.98
TTTTACAAAGTATGATGTACAAGTATATATAAATAT [XGTACX_site2072]	7.21
TACATGAATAAACTTACACACACCCATGCATACATA [CACACA_site97]	7.02
TGAAAAGGAAAATTTTGTACATATACATCAAGGATA [XGTACX_site656]	6.73
ACTTTTTATTTTTTACTATATATATATATATATATG [TGCATGCA_negctrl_site463]	7.8
AAAAAAAAGAATTTACGTACTTATTATTTATATTTT [XGTACX_site5701]	6.88
TAATTAAAAAATAAAAAAAAAAAAAATTAAAACAAA [CACACA_negctrl_site500]	6.65
TGCTAATAATTATTTGTTTAGCAACAAAAAAAAAAA [CACACA_negctrl_site1541]	6.9
TTCTTTTTAATTTATTTTTTCTTATAACAAGAAAAC [CACACA_negctrl_site201]	7.17
GTACATACATAAAACACACACATATATATATATATA [CACACA_site1826]	9.26
TTCTTTTCTTTTTTCTTTTTTTTTTTCTTTTCTTTT [GTGCAC_negctrl_site630]	6.55
AAAAAAAAAAAAAAAACATGCAAAATAATATATATA [TGCATGCA_site68]	7.44
AGAAAAGGACATATATGTACTTATCAATATAGAAAC [XGTACX_site1042]	7.29
TCACATATGTTCCATTGTACTTGTAGTAATTTTTTC [XGTACX_site6473]	6.95

Sequence	gcPBM binding intensity (ln)
GTAATATGTATCCATACACACATACATTTTATTTGC [CACACA_site4640]	7.11
ATAAAATGAAATATATGTACGCATCACTTGTTGAAC [XGTACX_site4530]	7.14
TATATTTTACTCTTCACACATATACTCAATTTATAT [CACACA_site5357]	7.08
AAAAGAAAAAGAAAAACACACATAAATATAAATATA [CACACA_site1879]	6.57
CATATTTGGAAACACACACACATATTTATATATATA [CACACA_site3569]	7.95
AAAATTTTCTTTTTATGTACACATAATTTTACCGGA [XGTACX_site5276]	6.92
AAAACAATAATATACTGTACATATATATAATAACAT [XGTACX_site6188]	7.13
AAATTCAGGTTATATTTTAATTTTTTTTTGTTTTTT [CACACA_negctrl_site924]	6.5
CATACACATACACATACACACGCATAGAAACATACG [CACACA_site8666]	7.47
AATTTTTCATCAAGTTGTACAATTATTTGTTTGTTT [XGTACX_site3113]	6.85
CAATATTTTTTATAGGGTACAAAAGATAAAAAAAAA [XGTACX_site6298]	7.05
ACAATTTATATTATATGTACTTAAAAAGTTCGTAAA [XGTACX_site6421]	7.02
TTTTATACATAAATATGTACGTATATATAATGAATT [XGTACX_site1337]	7.01
GCCTCATCGTAGCAGTGTACGTTTTTTTTTTTTTTT [XGTACX_site8648]	7.74
ATAACAACCCAATGTTGTACATTTAAATATAACGTA [XGTACX_site7114]	6.93
TTCTAAAATTATATAGTGCAATTATATTAATTTTTC	8.03
TATAACATATGACACACACACATACATACACAAAAA [CACACA_site6935]	7.39
TATATATATTTATGTACACACACACCGATAAATAAA [CACACA_site4404]	7.6
TTACGCGCTTATTACACACACATACAAATAAGGATT [CACACA_site3486]	7.04
AAAAATAAAAAAAATACATGCAATGAAACATTTATT [TGCATGCA_site263]	6.58
ATTTGTATTGTATATGCACACATAGAACACTTTTTT [CACACA_site9373]	7.18
AACAAAATAAAAAAAACATGCAAGAATTCTTATATG [TGCATGCA_site714]	6.63
TTGTGTTTGAAAAAATGTACATGTGTCTTACAACAA [XGTACX_site8371]	6.95

Sequence	gcPBM binding intensity (ln)
TTATACAGATATTTAACACACATTTTATAAAGTGCC [CACACA_site4851]	6.87
ATAAATGACAGACACACACACAAAAAAAAAAAACAA [CACACA_site2626]	7.12
ACCCTATCTGTAACTACACACCGCATATTGTTTACT [CACACA_site5661]	7.32
AAATATTTATATGTTACACACTGTTTATAACTTTCT [CACACA_site6752]	6.65
TTTTTATCTTTGCTGTGTACATAAATAAAAATAACT [XGTACX_site7625]	7.64
CTTCTGTAATTATCACGTACATATAATAATTAAAAT [XGTACX_site8973]	7.34
TTTTTTTTGATAAGTTGTACAATGATATATATCCCT [XGTACX_site3560]	7.12
ATAGTTTAATTTATATGTACATATAATATTGATTTG [XGTACX_site7520]	7.29
TATATTTTATATTGGTGTACAATTTTTTTTTTTTTT [XGTACX_site4291]	7.12
CCTTTTTTTTTTTTATGTACTAAAATAAAATTAGAA [XGTACX_site5956]	7.19
TTTTTTTTGTGTATTTGTACATAATATATATATATA [XGTACX_site7092]	8.79
TAATACCATTGTCATGCATGCACATTATTACTCTAA [TGCATGCA_site160]	7.38
TCGTAATTTTTTTTTATATATTAGGAATTTATAAAA [XGTACX_negctrl_site409]	6.92
ATATTATATTTCTTTTGTACATATTATATAATATAT [XGTACX_site7198]	7.24
AAAAGGTATGTTATACATAGATATGCACATATATGT [TGCATGCA_negctrl_site96]	9.51
GTAGGATTTTCTTTTGTGCGCAATATAAAAAGAAAA [GTGCAC_site9514]	7.48
ATTAATATAAAAAGGTAAATGGATGTAATATATATA [XGTACX_negctrl_site2]	7.72
AAAATTGTTATTTTATGTACTTATATTTATTTATTT [XGTACX_site3478]	7.03
ATATATATAATATAATGTACATATATTTTATTTTTA [XGTACX_site3819]	7.71
TATATACATTTATGTACACACACATATATGTATATT [CACACA_site8971]	7.29
ATATATTAATTTAATTGTACGAATAAAAAAAAAAAA [XGTACX_site223]	7.01
AAAGCACCCAAGAATACACACAAATATTATAAAAAA [CACACA_site111]	8.37
TAATGTATTATATTTAGTACATATAAAAATAATTTT [XGTACX_site6886]	7.02

Sequence	gcPBM binding intensity (ln)
ACGTATTAGATAAATACACACACAAGCATATATTTT [CACACA_site9135]	7.03
ATATATATTGTACTAGTGCATATATATACATATATT	8.43
ATAAATAAAAACACAAAACAAAACAAAACAAAACAA [CACACA_negctrl_site1257]	6.9
TTTCATCTATATGAAACACACAAAGGAAAAAAAATT [CACACA_site7869]	7.01
TAATAAATGGCTAGTTGTACAGAAATATAAATATTA [XGTACX_site4579]	6.79
AGATTCAAAAATAAAACATGCAAAAATAAAACGTGC [TGCATGCA_site501]	7.31
CATTTTATCAAAAGTGGTACAACCCTTTCAAAAAAT [XGTACX_site341]	6.93
TTTTTTTTTTTTTTTTGTACGTAATATATGATTAAT [XGTACX_site6876]	6.98
AAATTACTTTCACAGTGTACTTGGAAAAAAAAAAGA [XGTACX_site1046]	7.05
AGATATAATAAATATACACACATATATATATATATA [CACACA_site962]	9.74
TAATTTTATATATGCACACAAAATATGTTCATATAA [CACACA_site4076]	7.15
TGAAAAATGTTGATGTGTACTTATATAGTGTGTTAA [XGTACX_site2100]	7.24
TTTAACATAAATTAAACACACAATATAATACATTAA [CACACA_site1237]	6.72
ATATATATTTAAATGTGTACTCATTTATTTTATGTC [XGTACX_site4984]	7.13
ATAGTATAACAGCAATGTACACATATTTGTGTATAT [XGTACX_site7899]	6.99
TATATATATAAACACACACACACATATATATATATT [CACACA_site8814]	7.96
TTTTTTTTTTTTGTCACACATATATTTGTATTTATA [CACACA_site5234]	6.89
TGATATTTATAATAAATATTATAATAAAATCAAACA [XGTACX_negctrl_site219]	6.86
ATATATATTTTTATTTGTACATAATTTTTTTTGTGA [XGTACX_site6378]	7.3
TTTTTTTTTTTTTGCACACACATATATAGATATATA [CACACA_site7784]	7.24
